What all share (experiment): protein-binding microarray (PBM)
Holding throughout (settings): PBM: ~300 nM protein, 6 mM HEPES pH 7.8, 80 mM KCl, 0.5 mM EDTA, 0.5 mM EGTA, 6% glycerol, 35 ng/ul poly-dIdC, 1% milk, 1 h, room temperature; Ap Aiptasia and Nv Nematostella (sea anemones) / Co Capsaspora / Aq Amphimedon (sponge) / Dm Drosophila / Hu human; RHD is the Rel homology domain; high values mean tight binding; most listed sequences are background and not binding sites; double strand, one strand shown

The target of experiment [1] is T1, GST-Nv-NF-kB (Cys allele) (UniProt E5G601).
T1 sequence: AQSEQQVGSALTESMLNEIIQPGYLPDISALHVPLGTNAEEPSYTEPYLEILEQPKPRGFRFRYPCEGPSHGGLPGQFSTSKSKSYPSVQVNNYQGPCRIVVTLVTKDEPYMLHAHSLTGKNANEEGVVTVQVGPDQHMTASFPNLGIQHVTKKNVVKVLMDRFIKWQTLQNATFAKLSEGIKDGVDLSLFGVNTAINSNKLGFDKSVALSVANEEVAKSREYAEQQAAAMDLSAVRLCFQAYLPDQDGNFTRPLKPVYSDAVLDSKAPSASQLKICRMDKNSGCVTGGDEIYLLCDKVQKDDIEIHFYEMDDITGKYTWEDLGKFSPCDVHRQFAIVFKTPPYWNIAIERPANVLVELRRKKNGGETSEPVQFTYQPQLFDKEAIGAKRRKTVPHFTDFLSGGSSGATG

Another experiment deals with T2, GST-Co-NF-kB (UniProt F1ARL5).
T2 sequence: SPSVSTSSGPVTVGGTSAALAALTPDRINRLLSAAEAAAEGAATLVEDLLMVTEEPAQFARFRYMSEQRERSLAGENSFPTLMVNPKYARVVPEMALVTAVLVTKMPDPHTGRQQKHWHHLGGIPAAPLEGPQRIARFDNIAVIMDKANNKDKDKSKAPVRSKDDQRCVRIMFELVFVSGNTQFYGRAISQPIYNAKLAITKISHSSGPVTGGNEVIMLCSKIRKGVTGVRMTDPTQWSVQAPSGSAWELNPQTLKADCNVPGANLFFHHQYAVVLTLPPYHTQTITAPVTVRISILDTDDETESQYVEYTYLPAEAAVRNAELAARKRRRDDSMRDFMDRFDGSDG

In another experiment the target is T3, GST-Aq-NF-kB (UniProt A9Y5G7).
T3 sequence: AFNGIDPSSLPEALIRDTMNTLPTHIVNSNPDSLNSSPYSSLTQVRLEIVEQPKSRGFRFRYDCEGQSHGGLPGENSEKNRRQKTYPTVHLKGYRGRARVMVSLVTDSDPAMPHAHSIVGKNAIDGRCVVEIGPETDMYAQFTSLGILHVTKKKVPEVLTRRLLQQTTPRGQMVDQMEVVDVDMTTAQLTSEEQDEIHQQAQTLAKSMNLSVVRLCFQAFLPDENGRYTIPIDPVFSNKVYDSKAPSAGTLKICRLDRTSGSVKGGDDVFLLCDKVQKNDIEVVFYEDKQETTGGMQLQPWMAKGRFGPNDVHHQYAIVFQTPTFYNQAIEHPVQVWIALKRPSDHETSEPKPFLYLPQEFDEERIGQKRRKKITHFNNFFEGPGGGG

Another experiment deals with T4, GST-Dm-Relish (UniProt Q94527).
T4 sequence: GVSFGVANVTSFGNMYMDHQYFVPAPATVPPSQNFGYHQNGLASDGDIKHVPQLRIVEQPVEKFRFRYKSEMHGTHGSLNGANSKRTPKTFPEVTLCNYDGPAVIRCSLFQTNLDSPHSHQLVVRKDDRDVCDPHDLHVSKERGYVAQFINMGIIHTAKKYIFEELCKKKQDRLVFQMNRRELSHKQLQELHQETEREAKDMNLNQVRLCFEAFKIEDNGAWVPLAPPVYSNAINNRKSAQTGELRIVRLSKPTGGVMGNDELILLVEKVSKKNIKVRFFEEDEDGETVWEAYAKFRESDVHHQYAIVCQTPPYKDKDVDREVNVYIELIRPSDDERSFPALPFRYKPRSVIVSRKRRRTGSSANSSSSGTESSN

This is a selection; strong and weak results do not stand in their true shares. For part of these data: The list includes weakly bound sequences.

Regarding “CCGATTAACATCAGGGAAAGCCCTGATGTTAATCGGGTCTTGATTCGCTTGACGCTGCTG”, the binding signal in experiment [1] came to 8.76 z-score; in the experiment with GST-Co-NF-kB, 1.84 z-score; with GST-Aq-NF-kB, 8.88 z-score.

In the case of “CCGATTAACATCAAGAGTTTCCCTGATGTTAATCGGGTCTTGATTCGCTTGACGCTGCTG”, the binding signal in experiment [1] was found to be 5.34 z-score; with GST-Aq-NF-kB, 5.12 z-score.

Consider “CCGATTAACATCAGGGGAATCAATGATGTTAATCGGGTCTTGATTCGCTTGACGCTGCTG”, for which the binding signal was 6.47 z-score in experiment [1] and 4.26 z-score with GST-Aq-NF-kB.

On to “CCGATTAACATCACTATTTTCCCTGATGTTAATCGGGTCTTGATTCGCTTGACGCTGCTG”, for which the binding signal was 4.96 z-score in experiment [1] and 3.51 z-score with GST-Aq-NF-kB.

Consider “CCGATTAACATCAGGGATTACCCTGATGTTAATCGGGTCTTGATTCGCTTGACGCTGCTG”, for which the binding signal in experiment [1] is 10 z-score; in the experiment with GST-Aq-NF-kB, 8.71 z-score.

As for “CCGATTAACATCAAGGGTGGGAATGATGTTAATCGGGTCTTGATTCGCTTGACGCTGCTG”, the values for the binding signal (in experiment [1]; in the experiment with GST-Aq-NF-kB) were 1.84 z-score and 2.63 z-score, respectively.

For “CCGATTAACATCAAGGGGGGTATTGATGTTAATCGGGTCTTGATTCGCTTGACGCTGCTG”, the binding signal in experiment [1] came out at 4.4 z-score; with GST-Aq-NF-kB it was 5.2 z-score.

With “CCGATTAACATCAAGGGGGGTTATGATGTTAATCGGGTCTTGATTCGCTTGACGCTGCTG”, the binding signal in experiment [1] turned out to be 4.63 z-score; with GST-Aq-NF-kB, 5.77 z-score.

For “CCGATTAACATCAGGGCTCCCCCTGATGTTAATCGGGTCTTGATTCGCTTGACGCTGCTG”, the binding signal came to 5.82 z-score in experiment [1], 4.76 z-score with GST-Co-NF-kB and 8.12 z-score with GST-Aq-NF-kB.

Consider “CCGATTAACATCAGAAAATCCCATGATGTTAATCGGGTCTTGATTCGCTTGACGCTGCTG”, for which the binding signal is 4.29 z-score in experiment [1] and 4.36 z-score in the experiment with GST-Aq-NF-kB.

For the sequence “CCGATTAACATCACCGCCCCCCCTGATGTTAATCGGGTCTTGATTCGCTTGACGCTGCTG”, the binding signal was 4.65 z-score in experiment [1] and 4.3 z-score with GST-Aq-NF-kB.

On to “CCGATTAACATCAGGGGGGTATATGATGTTAATCGGGTCTTGATTCGCTTGACGCTGCTG”, for which the binding signal in experiment [1] came out at 2.99 z-score; in the experiment with GST-Aq-NF-kB, 4.1 z-score.

For the sequence “CCGATTAACATCAGGAAAACCCCTGATGTTAATCGGGTCTTGATTCGCTTGACGCTGCTG”, the results for the binding signal (in experiment [1]; in the experiment with GST-Co-NF-kB; with GST-Aq-NF-kB) were 8.89 z-score, 2.41 z-score and 9.24 z-score, respectively.

Turning to “CCGATTAACATCAGGGGGGAAAATGATGTTAATCGGGTCTTGATTCGCTTGACGCTGCTG”, the figures for the binding signal (in experiment [1]; with GST-Co-NF-kB; with GST-Aq-NF-kB) were 6.13 z-score, 11.5 z-score and 6.28 z-score, respectively.

With “CCGATTAACATCAAAAAATTCCCTGATGTTAATCGGGTCTTGATTCGCTTGACGCTGCTG”, the binding signal is 10.3 z-score in experiment [1] and 8.5 z-score with GST-Aq-NF-kB.

With “CCGATTAACATCAGTAATCCCCATGATGTTAATCGGGTCTTGATTCGCTTGACGCTGCTG”, the binding signal in experiment [1] came to 5.74 z-score; in the experiment with GST-Aq-NF-kB, 4.5 z-score.

As for “CCGATTAACATCACATCTTCCCCTGATGTTAATCGGGTCTTGATTCGCTTGACGCTGCTG”, the binding signal is 6.11 z-score in experiment [1], 6.39 z-score with GST-Co-NF-kB and 4.78 z-score in the experiment with GST-Aq-NF-kB.

Take “CCGATTAACATCAAAAAAGTCCCTGATGTTAATCGGGTCTTGATTCGCTTGACGCTGCTG”: the binding signal is 11.6 z-score in experiment [1] and 8.92 z-score with GST-Aq-NF-kB.

As to “CCGATTAACATCAGGGAAAGTAATGATGTTAATCGGGTCTTGATTCGCTTGACGCTGCTG”, the binding signal was found to be 4.93 z-score in experiment [1], 3.38 z-score in the experiment with GST-Co-NF-kB and 4.25 z-score with GST-Aq-NF-kB.

For the sequence “CCGATTAACATCAGGGGGGGGACTGATGTTAATCGGGTCTTGATTCGCTTGACGCTGCTG”, the binding signal was 5.11 z-score in experiment [1] and 5.29 z-score in the experiment with GST-Aq-NF-kB.

For the sequence “CCGATTAACATCAAAGAGTCCCCTGATGTTAATCGGGTCTTGATTCGCTTGACGCTGCTG”, the binding signal in experiment [1] came out at 6.17 z-score; in the experiment with GST-Aq-NF-kB, 5.8 z-score.

Regarding “CCGATTAACATCAGGGGGGGGCATGATGTTAATCGGGTCTTGATTCGCTTGACGCTGCTG”, the binding signal in experiment [1] was determined as 4.84 z-score; in the experiment with GST-Aq-NF-kB it was 3.82 z-score.

With “CCGATTAACATCAAGTTTACCCCTGATGTTAATCGGGTCTTGATTCGCTTGACGCTGCTG”, the binding signal is 2.2 z-score in experiment [1], 6.61 z-score with GST-Co-NF-kB and 2.91 z-score with GST-Aq-NF-kB.

As for “CCGATTAACATCAATAATTCCCCTGATGTTAATCGGGTCTTGATTCGCTTGACGCTGCTG”, the binding signal in experiment [1] was determined as 10.6 z-score; with GST-Aq-NF-kB, 7.59 z-score.

In the case of “CCGATTAACATCACCGCCCCACGTGATGTTAATCGGGTCTTGATTCGCTTGACGCTGCTG”, the binding signal in experiment [1] stood at 1.73 z-score; in the experiment with GST-Aq-NF-kB, 1.28 z-score.

In the case of “CCGATTAACATCACAGTTTCCCCTGATGTTAATCGGGTCTTGATTCGCTTGACGCTGCTG”, the binding signal in experiment [1] is 7.28 z-score; with GST-Aq-NF-kB, 4.9 z-score.

Take “CCGATTAACATCACGGAATGCCCTGATGTTAATCGGGTCTTGATTCGCTTGACGCTGCTG”: the binding signal in experiment [1] was found to be 0.18 z-score; in the experiment with GST-Co-NF-kB, 0.241 z-score; with GST-Aq-NF-kB, 2.6 z-score.

Regarding “CCGATTAACATCAATTGCCCCCCTGATGTTAATCGGGTCTTGATTCGCTTGACGCTGCTG”, the binding signal in experiment [1] worked out at 2.81 z-score; with GST-Aq-NF-kB, 4.63 z-score.

On to “CCGATTAACATCAGGATTTACCCTGATGTTAATCGGGTCTTGATTCGCTTGACGCTGCTG”, for which the values for the binding signal (in experiment [1]; with GST-Aq-NF-kB) were 4.29 z-score and 6.67 z-score, respectively.

For the sequence “CCGATTAACATCAAATATTCCCCTGATGTTAATCGGGTCTTGATTCGCTTGACGCTGCTG”, the binding signal in experiment [1] was 10.7 z-score; with GST-Co-NF-kB, 10.1 z-score; with GST-Aq-NF-kB it was 8.12 z-score.

As for “CCGATTAACATCAGGAAATTCCCTGATGTTAATCGGGTCTTGATTCGCTTGACGCTGCTG”, the binding signal in experiment [1] came to 9.9 z-score; with GST-Aq-NF-kB, 9.8 z-score.

Take “CCGATTAACATCAAGGTGTTCCCTGATGTTAATCGGGTCTTGATTCGCTTGACGCTGCTG”: the binding signal in experiment [1] came to 0.97 z-score; with GST-Co-NF-kB, 2.38 z-score; with GST-Aq-NF-kB, 2.49 z-score.

As for “CCGATTAACATCAAATCCCCCCGTGATGTTAATCGGGTCTTGATTCGCTTGACGCTGCTG”, the binding signal in experiment [1] is 7.22 z-score; in the experiment with GST-Co-NF-kB it was 7.74 z-score; in the experiment with GST-Aq-NF-kB, 6.07 z-score.

“CCGATTAACATCAAGCCCCCCCCTGATGTTAATCGGGTCTTGATTCGCTTGACGCTGCTG”: the binding signal in experiment [1] was 4.21 z-score; with GST-Co-NF-kB, 4.89 z-score; with GST-Aq-NF-kB, 4.71 z-score.

Regarding “CCGATTAACATCAGGGGCTTCCATGATGTTAATCGGGTCTTGATTCGCTTGACGCTGCTG”, the binding signal in experiment [1] came to 4.89 z-score; with GST-Co-NF-kB, 0.135 z-score; in the experiment with GST-Dm-Relish, 6.97 z-score; in the experiment with GST-Aq-NF-kB, 5.03 z-score.

As to “CCGATTAACATCACCGGAATTTCTGATGTTAATCGGGTCTTGATTCGCTTGACGCTGCTG”, the binding signal in experiment [1] was determined as 0.371 z-score; with GST-Co-NF-kB, 0.796 z-score; with GST-Aq-NF-kB it was 2.45 z-score.

As to “CCGATTAACATCACACTTTTCCCTGATGTTAATCGGGTCTTGATTCGCTTGACGCTGCTG”, the binding signal was 4.45 z-score in experiment [1], 4.46 z-score with GST-Co-NF-kB and 3.57 z-score with GST-Aq-NF-kB.

“CCGATTAACATCAGGAAAATACCTGATGTTAATCGGGTCTTGATTCGCTTGACGCTGCTG”: the binding signal was 2.3 z-score in experiment [1], -0.385 z-score in the experiment with GST-Co-NF-kB and 4.29 z-score in the experiment with GST-Aq-NF-kB.

The values above are taken from paper PMC5700166.
